Measurements published in the supplement of paper PMC12067230.
This is a noisy data set.

assay: amyloid nucleation score relative to library mode (yeast Sup35 reporter selection) (log enrichment difference); higher = more amyloid nucleation; sequences are the first 22 residues of the Bri2 peptide extended by up to 12 random residues; conditions: random library (experiment): 1;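 active = nucleation score significantly above 0 at FDR 0.05; inactive = not significantly above 0 or absent from output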
Experimental: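 Random C-terminal extensions of the 22-aa Bri2 peptide by 12 NNK codons; premature stops give shorter extensions. Peptides were fused to the Sup35 nucleation domain in S. cerevisiae [psi-pin-] and selected on -ADE-URA plates for 7 d at 30 °C. The nucleation score is log(output/input), centred to the mode of each of 3 independent libraries (1 input, 3 technical output replicates), with duplicates merged. Sequences absent from the output ('random_non_nuc') were imputed with the library mode value, so they are given as censored (<). Nucleators are scores significantly >0 at FDR 0.05.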
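Further: [psi-pin-] Saccharomyces cerevisiae expressing SupN fusions, induced by 100 µM Cu2SO4, selected 7 d at 30 °C without adenine and uracil, scored by deep sequencing of output versus input.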

Sequence | amyloid nucleation score
EASNCFAIRHFENKFAVETLICRT | inactive
EASNCFAIRHFENKFAVETLICPSVKTVGGNNEV | 4.14
EASNCFAIRHFENKFAVETLICDNTFSM | inactive
EASNCFAIRHFENKFAVETLICMSSLGSGWPGCA | 6.3
EASNCFAIRHFENKFAVETLICVPFRWNRSRWHH | 4.13
EASNCFAIRHFENKFAVETLICTRLLRKTHCYVS | inactive
EASNCFAIRHFENKFAVETLICGEAWPTRTHRPW | inactive
EASNCFAIRHFENKFAVETLICDYCVWERVSGEA | inactive
EASNCFAIRHFENKFAVETLICQGIVRYPNWSRS | 2.47
EASNCFAIRHFENKFAVETLICVARAVQGPNTWG | inactive
EASNCFAIRHFENKFAVETLICVVRVAKPSASTG | inactive
EASNCFAIRHFENKFAVETLICLDKYT | inactive
EASNCFAIRHFENKFAVETLICCA | 2.42
EASNCFAIRHFENKFAVETLICCSMDASWAWSEL | 8.69
EASNCFAIRHFENKFAVETLICVQVRKRQACFGS | inactive
EASNCFAIRHFENKFAVETLICERLHYFCYRLYA | inactive
EASNCFAIRHFENKFAVETLICLMRVAPPSLWVG | inactive
EASNCFAIRHFENKFAVETLICLESPNSLFLYS | 3.09
EASNCFAIRHFENKFAVETLICRGGSSRMKGPGR | inactive
EASNCFAIRHFENKFAVETLICPRSAAVTNVLAG | 1.39

Sequence | amyloid nucleation score
EASNCFAIRHFENKFAVETLICLVCGYG | 7.7
EASNCFAIRHFENKFAVETLICRGR | inactive
EASNCFAIRHFENKFAVETLICGTGLRKAQRSDQ | inactive
EASNCFAIRHFENKFAVETLICIVVRS | inactive
EASNCFAIRHFENKFAVETLICLCECHVASGLPG | 8.08
EASNCFAIRHFENKFAVETLICFQETVRNWDIVL | 2.39
EASNCFAIRHFENKFAVETLICLDMLWGP | 1.28
EASNCFAIRHFENKFAVETLICVLFFMLY | inactive
EASNCFAIRHFENKFAVETLICEKAIAQSYPGPV | inactive
EASNCFAIRHFENKFAVETLICPPK | inactive
EASNCFAIRHFENKFAVETLICVYMDHC | 7.51
EASNCFAIRHFENKFAVETLICCYGNGVKGDSRA | 5.45
EASNCFAIRHFENKFAVETLICCSMACRLNEVHG | 3.97
EASNCFAIRHFENKFAVETLICVGVLVSFTVMC | inactive
EASNCFAIRHFENKFAVETLICVVAWALGAWLQY | inactive
EASNCFAIRHFENKFAVETLICNGSSAFVMNIV | 5.14
EASNCFAIRHFENKFAVETLICGTVTVKV | inactive
EASNCFAIRHFENKFAVETLICAFVGVMVTKSFQ | inactive
EASNCFAIRHFENKFAVETLICIMLHIRTGGCQW | inactive
EASNCFAIRHFENKFAVETLICKVAKSVSGSLSW | inactive

same assay, conditions: random library (experiment): 2

Sequence | amyloid nucleation score
EASNCFAIRHFENKFAVETLICLIGDLPFISVGW | inactive
EASNCFAIRHFENKFAVETLICYVMFSLAMVRVV | inactive
EASNCFAIRHFENKFAVETLICVIRGHVV | inactive
EASNCFAIRHFENKFAVETLICVIGAVYSALTVA | inactive
EASNCFAIRHFENKFAVETLICDWDYRAYKMFM | 4.26
EASNCFAIRHFENKFAVETLICDIPFLHVQIYCG | 3.1
EASNCFAIRHFENKFAVETLICLCYERPADGV | 4.95
EASNCFAIRHFENKFAVETLICLNILANSTCSFA | 5.72
EASNCFAIRHFENKFAVETLICVLPTGLAEVGWA | inactive
EASNCFAIRHFENKFAVETLICHLFKNYSTFDKG | inactive
EASNCFAIRHFENKFAVETLICVGGNCDMVVPNG | -0.0862
EASNCFAIRHFENKFAVETLICVREGFYDCISRE | 2.67
EASNCFAIRHFENKFAVETLICYSYSVCGWLR | inactive
EASNCFAIRHFENKFAVETLICILYFGCGSMFTL | inactive
EASNCFAIRHFENKFAVETLICVKVYFYLGVTGW | inactive
EASNCFAIRHFENKFAVETLICFGRS | 6.12
EASNCFAIRHFENKFAVETLICQCTCFGVYFSVE | 4.75
EASNCFAIRHFENKFAVETLICKLYQHDMGHVGT | inactive
EASNCFAIRHFENKFAVETLICVFLYHHLVVDGG | inactive
EASNCFAIRHFENKFAVETLICCIVSEWMGSHGL | 5.78
EASNCFAIRHFENKFAVETLICCQHLDWEVLSTV | inactive
EASNCFAIRHFENKFAVETLICLWQKLVTIHL | inactive
EASNCFAIRHFENKFAVETLICLTVPHEVYGF | inactive
EASNCFAIRHFENKFAVETLICIVTILYNLNSCA | inactive
EASNCFAIRHFENKFAVETLICLIILCRFGSIM | inactive
EASNCFAIRHFENKFAVETLICYIICVDMTGRSR | inactive
EASNCFAIRHFENKFAVETLICMEMMVFWTISFV | inactive

same assay, conditions: random library (experiment): 3

Sequence | amyloid nucleation score
EASNCFAIRHFENKFAVETLICWMQYIGRVGDFR | inactive
EASNCFAIRHFENKFAVETLICRVLKLSRDVGWR | inactive
EASNCFAIRHFENKFAVETLICPMANV | 0.49
EASNCFAIRHFENKFAVETLICLWWVGPGGVWMH | inactive
EASNCFAIRHFENKFAVETLICQSG | inactive
EASNCFAIRHFENKFAVETLICWLFGSNG | 8.69
EASNCFAIRHFENKFAVETLICRDVRSTNMVSEY | inactive
EASNCFAIRHFENKFAVETLICAFEMRRLQSGLA | inactive
EASNCFAIRHFENKFAVETLICPFHPLEEFVDAP | inactive
EASNCFAIRHFENKFAVETLICNWNKASEMCGWY | 6.16
EASNCFAIRHFENKFAVETLICFSDTLWIAETCL | inactive
EASNCFAIRHFENKFAVETLICKPWYVRRKRWRR | inactive
EASNCFAIRHFENKFAVETLICKCTMAAELTCQC | inactive
EASNCFAIRHFENKFAVETLICGCMCPQ | 7.95
EASNCFAIRHFENKFAVETLICRRRDQDSEGPAM | inactive
EASNCFAIRHFENKFAVETLICLRARE | inactive
EASNCFAIRHFENKFAVETLICVMWRMSLVGLGR | inactive
EASNCFAIRHFENKFAVETLICDRARKDFIDQYR | 1.18
EASNCFAIRHFENKFAVETLICTAYISGISVWY | 4.46
